# According to the supplement of paper PMC12423691:
# Some of the results follow. Binding of human transcription factors and regulators to the viral nucleoprotein by AlphaScreen, crude cell-free proteins, amounts not normalised, one pass. Fold of the Venus control; higher = more signal. No active / inactive call. Single-pass screen; sequences are the whole Swiss-Prot entries looked up by name.
# B1: PLSCR1, O15162 (protein)
# chain: MDKQNSQMNASHPETNLPVGYPPQYPPTAFQGPPGYSGYPGPQVSYPPPPAGHSGPGPAGFPVPNQPVYNQPVYNQPVGAAGVPWMPAPQPPLNCPPGLEYLSQIDQILIHQQIELLEVLTGFETNNKYEIKNSFGQRVYFAAEDTDCCTRNCCGPSRPFTLRIIDNMGQEVITLERPLRCSSCCCPCCLQEIEIQAPPGVPIGYVIQTWHPCLPKFTIQNEKREDVLKISGPCVVCSCCGDVDFEIKSLDEQCVVGKISKHWTGILREAFTDADNFGIQFPLDLDVKMKAVMIGACFLIDFMFFESTGSQEQKSGVW
# B2: LEF1, Q9UJU2 (protein)
# chain: MPQLSGGGGGGGGDPELCATDEMIPFKDEGDPQKEKIFAEISHPEEEGDLADIKSSLVNESEIIPASNGHEVARQAQTSQEPYHDKAREHPDDGKHPDGGLYNKGPSYSSYSGYIMMPNMNNDPYMSNGSLSPPIPRTSNKVPVVQPSHAVHPLTPLITYSDEHFSPGSHPSHIPSDVNSKQGMSRHPPAPDIPTFYPLSPGGVGQITPPLGWQGQPVYPITGGFRQPYPSSLSVDTSMSRFSHHMIPGPPGPHTTGIPHPAIVTPQVKQEHPHTDSDLMHVKPQHEQRKEQEPKRPHIKKPLNAFMLYMKEMRANVVAECTLKESAAINQILGRRWHALSREEQAKYYELARKERQLHMQLYPGWSARDNYGKKKKRKREKLQESASGTGPRMTAAYI
# B3: NODAL, Q96S42 (protein)
# chain: MHAHCLPFLLHAWWALLQAGAATVATALLRTRGQPSSPSPLAYMLSLYRDPLPRADIIRSLQAEDVAVDGQNWTFAFDFSFLSQQEDLAWAELRLQLSSPVDLPTEGSLAIEIFHQPKPDTEQASDSCLERFQMDLFTVTLSQVTFSLGSMVLEVTRPLSKWLKHPGALEKQMSRVAGECWPRPPTPPATNVLLMLYSNLSQEQRQLGGSTLLWEAESSWRAQEGQLSWEWGKRHRRHHLPDRSQLCRKVKFQVDFNLIGWGSWIIYPKQYNAYRCEGECPNPVGEEFHPTNHAYIQSLLKRYQPHRVPSTCCAPVKTKPLSMLYVDNGRVLLDHHKDMIVEECGCL
# B4: MEN1, O00255 (protein)
# chain: MGLKAAQKTLFPLRSIDDVVRLFAAELGREEPDLVLLSLVLGFVEHFLAVNRVIPTNVPELTFQPSPAPDPPGGLTYFPVADLSIIAALYARFTAQIRGAVDLSLYPREGGVSSRELVKKVSDVIWNSLSRSYFKDRAHIQSLFSFITGTKLDSSGVAFAVVGACQALGLRDVHLALSEDHAWVVFGPNGEQTAEVTWHGKGNEDRRGQTVNAGVAERSWLYLKGSYMRCDRKMEVAFMVCAINPSIDLHTDSLELLQLQQKLLWLLYDLGHLERYPMALGNLADLEELEPTPGRPDPLTLYHKGIASAKTYYRDEHIYPYMYLAGYHCRNRNVREALQAWADTATVIQDYNYCREDEEIYKEFFEVANDVIPNLLKEAASLLEAGEERPGEQSQGTQSQGSALQDPECFAHLLRFYDGICKWEEGSPTPVLHVGWATFLVQSLGRFEGQVRQKVRIVSREAEAAEAEEPWGEEAREGRRRGPRRESKPEEPPPPKKPALDKGLGTGQGAVSGPPRKPPGTVAGTARGPEGGSTAQVPAPTASPPPEGPVLTFQSEKMKGMKELLVATKINSSAIKLQLTAQSQVQMKKQKVSTPSDYTLSFLKRQRKGL
# B5: TBX6, O95947 (protein)
# chain: MYHPRELYPSLGAGYRLGPAQPGADSSFPPALAEGYRYPELDTPKLDCFLSGMEAAPRTLAAHPPLPLLPPAMGTEPAPSAPEALHSLPGVSLSLENRELWKEFSSVGTEMIITKAGRRMFPACRVSVTGLDPEARYLFLLDVIPVDGARYRWQGRRWEPSGKAEPRLPDRVYIHPDSPATGAHWMRQPVSFHRVKLTNSTLDPHGHLILHSMHKYQPRIHLVRAAQLCSQHWGGMASFRFPETTFISVTAYQNPQITQLKIAANPFAKGFRENGRNCKRERDARVKRKLRGPEPAATEAYGSGDTPGGPCDSTLGGDIRESDPEQAPAPGEATAAPAPLCGGPSAEAYLLHPAAFHGAPSHLPTRSPSFPEAPDSGRSAPYSAAFLELPHGSGGSGYPAAPPAVPFAPHFLQGGPFPLPYTAPGGYLDVGSKPMY
# B6: HOXC13, P31276 (protein)
# chain: MTTSLLLHPRWPESLMYVYEDSAAESGIGGGGGGGGGGTGGAGGGCSGASPGKAPSMDGLGSSCPASHCRDLLPHPVLGRPPAPLGAPQGAVYTDIPAPEAARQCAPPPAPPTSSSATLGYGYPFGGSYYGCRLSHNVNLQQKPCAYHPGDKYPEPSGALPGDDLSSRAKEFAFYPSFASSYQAMPGYLDVSVVPGISGHPEPRHDALIPVEGYQHWALSNGWDSQVYCSKEQSQSAHLWKSPFPDVVPLQPEVSSYRRGRKKRVPYTKVQLKELEKEYAASKFITKEKRRRISATTNLSERQVTIWFQNRRVKEKKVVSKSKAPHLHST
# B7: UHRF1, Q96T88 (protein)
# chain: MWIQVRTMDGRQTHTVDSLSRLTKVEELRRKIQELFHVEPGLQRLFYRGKQMEDGHTLFDYEVRLNDTIQLLVRQSLVLPHSTKERDSELSDTDSGCCLGQSESDKSSTHGEAAAETDSRPADEDMWDETELGLYKVNEYVDARDTNMGAWFEAQVVRVTRKAPSRDEPCSSTSRPALEEDVIYHVKYDDYPENGVVQMNSRDVRARARTIIKWQDLEVGQVVMLNYNPDNPKERGFWYDAEISRKRETRTARELYANVVLGDDSLNDCRIIFVDEVFKIERPGEGSPMVDNPMRRKSGPSCKHCKDDVNRLCRVCACHLCGGRQDPDKQLMCDECDMAFHIYCLDPPLSSVPSEDEWYCPECRNDASEVVLAGERLRESKKKAKMASATSSSQRDWGKGMACVGRTKECTIVPSNHYGPIPGIPVGTMWRFRVQVSESGVHRPHVAGIHGRSNDGAYSLVLAGGYEDDVDHGNFFTYTGSGGRDLSGNKRTAEQSCDQKLTNTNRALALNCFAPINDQEGAEAKDWRSGKPVRVVRNVKGGKNSKYAPAEGNRYDGIYKVVKYWPEKGKSGFLVWRYLLRRDDDEPGPWTKEGKDRIKKLGLTMQYPEGYLEALANREREKENSKREEEEQQEGGFASPRTGKGKWKRKSAGGGPSRAGSPRRTSKKTKVEPYSLTAQQSSLIREDKSNAKLWNEVLASLKDRPASGSPFQLFLSKVEETFQCICCQELVFRPITTVCQHNVCKDCLDRSFRAQVFSCPACRYDLGRSYAMQVNQPLQTVLNQLFPGYGNGR
# Target: nucleoprotein N of Crimean-Congo hemorrhagic fever virus
# Experiment: AlphaScreen luminescence signal relative to Venus negative control (fold); higher = stronger binding to CCHFV N
# Protocol: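 AlphaScreen binding of cell-free made, FLAG-GST-tagged human transcription factors and regulators (crude translation products) to biotinylated N protein; signal as fold of the FLAG-GST-Venus control. One pass.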
row,Binder,AlphaScreen luminescence signal
1,B1,1.77
2,B2,3.49
3,B3,1.72
4,B4,2.33
5,B5,3.77
6,B6,1.86
7,B7,13.1
